Data published in the supplement of paper PMC3334620.
The full ranking holds about 33,000 sequences; the median of “E-score (-0.5 to 0.5)” is about -0.043, and the highest 2% start at about 0.37. Some of the results follow.

target: T1, Upc2 (UniProt Q12151); assay: PBM E-score (8-mer binding enrichment) (E-score (-0.5 to 0.5)); higher = stronger / more preferred TF binding; most listed sequences are background and not binding sites; details: protein concentration: 200 nM; construct: GST-full length
T1 sequence: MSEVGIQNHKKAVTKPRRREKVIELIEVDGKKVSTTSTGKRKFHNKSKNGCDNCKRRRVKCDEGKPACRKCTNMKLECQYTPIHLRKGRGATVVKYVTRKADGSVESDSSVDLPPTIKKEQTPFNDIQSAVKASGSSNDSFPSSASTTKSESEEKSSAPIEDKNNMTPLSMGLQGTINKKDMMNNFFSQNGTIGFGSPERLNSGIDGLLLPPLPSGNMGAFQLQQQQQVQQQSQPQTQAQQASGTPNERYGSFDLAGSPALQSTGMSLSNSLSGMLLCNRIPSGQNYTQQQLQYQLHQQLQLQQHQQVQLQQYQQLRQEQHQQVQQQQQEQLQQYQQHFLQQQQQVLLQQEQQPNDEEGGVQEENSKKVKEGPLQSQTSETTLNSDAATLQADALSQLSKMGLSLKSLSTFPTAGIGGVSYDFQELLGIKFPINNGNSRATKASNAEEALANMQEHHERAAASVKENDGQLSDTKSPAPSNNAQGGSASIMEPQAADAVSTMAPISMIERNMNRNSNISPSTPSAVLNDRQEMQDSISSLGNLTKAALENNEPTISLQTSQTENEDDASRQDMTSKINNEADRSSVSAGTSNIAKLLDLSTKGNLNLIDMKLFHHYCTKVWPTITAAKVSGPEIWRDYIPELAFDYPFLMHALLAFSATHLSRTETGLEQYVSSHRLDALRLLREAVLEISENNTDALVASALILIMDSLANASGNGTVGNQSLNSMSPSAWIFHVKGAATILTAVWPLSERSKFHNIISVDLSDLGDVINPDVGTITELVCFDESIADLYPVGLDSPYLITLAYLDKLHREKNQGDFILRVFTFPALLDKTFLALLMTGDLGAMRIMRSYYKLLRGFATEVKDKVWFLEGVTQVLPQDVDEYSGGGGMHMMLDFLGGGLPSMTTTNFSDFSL
Description: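 Universal 'all 10-mer' protein binding microarrays (Agilent AMADID 015681) probed with GST-tagged S. cerevisiae TFs (full-length or DBD) made by in vitro transcription/translation (PURExpress), about 100-200 nM. Bound TF was detected with fluorescent anti-GST. Each ungapped 8-mer (which stands for itself and its reverse complement) is scored by the PBM enrichment score (E-score), a modified Wilcoxon-Mann-Whitney statistic from -0.5 to +0.5, computed with the Universal PBM Analysis Suite. Scale: above 0.35 generally sequence-specific binding.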

Sequence	PBM E-score
AATAAATA	0.267
AGCTCCTG	-0.151
AATAAAGG	-0.101
TGAGTTAA	-0.0543
CCCAAGAG	-0.127
AGGGCACC	-0.177
AGAAGCCG	-0.0774
ACCGCCTC	-0.00964
AAGGCAAC	-0.077
ACGGGACA	0.0973
CAGATTTA	0.143
AAGGTCGC	-0.00748
ACAGATCT	-0.131
CTATTCAG	-0.0682
AGAGGGGC	-0.189
AATCACCC	-0.147
GCTGTAAC	0.0533
AAAGATAC	0.102
GTGCATAA	-0.0311
GTGGTCCA	-0.0852
ACCAAACT	-0.00694
ACCATGAA	-0.101
AGTTGGCC	-0.233
GCTTCCAC	-0.249
CGGGCGCC	-0.104

Sequence	PBM E-score
ATGCCAGA	-0.0451
AATTGAGG	-0.0823
AAGATCCT	0.0192
GCCCAAGA	-0.187
ATATATCA	-0.22
CGTTATAC	0.367
CCTCGGCC	-0.103
ACACCCAC	-0.105
CAAATAAG	-0.186
AGTAACTA	0.0724
ATTAGATG	0.182
CATTCAAC	-0.0252
TAAGGGAA	0.096
CATCCGGC	-0.141
TTAAAGAA	0.0771
ATACTCTA	0.117
GTCGCCGA	0.0364
AACCCGTC	0.0144
GCAGTAAC	-0.0315
ACTTCAAC	0.0881
GAGACACA	-0.0951
AAAAACTA	0.132
CTTAGTCC	-0.189
TCACTAGA	-0.104
TACCGCTA	0.0902

Sequence	PBM E-score
TAGCCGAA	0.0124
CGTGTGGA	-0.0569
AGAACCGC	0.0996
AGACACTC	-0.145
CAGTAATG	-0.249
ACCAATCT	-0.197
CTGATGAC	-0.0548
GCGGATGA	-0.0327
ATACAATA	0.0519
ACCCTCGC	0.0921
CATGAGAG	-0.145
AGGCGTTG	0.00901
ACACCTCC	-0.218
GTGGATCA	-0.163
AAAAAACG	0.186
AACCTCCC	-0.015
CGGTGATA	-0.00433
GGAATTTA	0.1
AAGCAACT	-0.0514
CTATCGCC	-0.141
CAGATTCC	-0.195
CGCTAATC	0.162
CCGTTAGC	0.0385
TACCGCGA	0.0931
GTGAAAGA	0.0936

Sequence	PBM E-score
CTGACCTC	-0.0552
AGTAGTTG	-0.137
AAATCGTG	0.0785
GATGTCCA	-0.119
TGAGTGAA	-0.142
GTAGGGCA	-0.0187
ATCCCTTG	-0.0259
CAAGGAAG	-0.273
GAGATACC	0.061
ATCAGAAG	-0.119
AGGCAGCG	-0.248
CACCTCAC	-0.153
CTTGTATC	-0.0734
GCCGGACC	-0.102
CATTAGTC	-0.139
ACCGTTGG	-0.241
ACATGAGG	-0.214
CTTTTACA	0.031
ATCCCACA	-0.135
ATTCAGCC	-0.327
ACGGGGTC	0.17
ACGGCGCA	0.118
CGAAAGAC	0.0461
GGTGTAAC	0.143
GAAAGAGC	0.0534

Sequence	PBM E-score
CCCAAACG	0.431
ATGCACGG	-0.192
CCCACGGC	-0.177
GCAGGCCA	-0.174
GAATATGA	-0.13
AGGGTCTA	-0.279
GCACCTCA	-0.171
CATCTTAA	0.0649
CGAGGTAG	0.0715
AACCTGAG	0.0141
CTCAACGC	-0.147
AAATGACG	-0.146
CGCTTCAG	-0.0751
CCAGGATA	0.0403
CATGCGGA	-0.00811
AGTGCACC	-0.0403
ACACACAG	0.0116
ACGTTATA	0.184
ATGATGAG	-0.135
CAGCACGC	-0.0497
CGCACCCA	-0.0122
GTCTACTA	-0.0326
ACAACGGC	0.0269
ACAACCCA	-0.0333
AGTGCATC	-0.0515

Sequence	PBM E-score
AAGGGAGG	-0.0515
AAGGCGGA	-0.14
CGTCGACG	-0.133
GTAGTTGA	-0.0307
CAGTAAAA	0.26
ATCGTGAA	0.133
ACGGTATC	0.152
CCGATAGA	-0.194
CCTTTAGA	-0.218
CAACAACG	0.184
CATCATAA	-0.171
AACGGCCC	0.259
CCAGAAAA	-0.045
CTAATGAC	-0.208
CCGTGGTA	-0.0935
CATGCCCG	0.0485
GCAAAATA	0.0486
GCAATAGC	-0.202
CGCAATGA	0.0774
ATCAGTAA	0.0909
CTTCTTCA	-0.242
GGTCGACC	0.102
AGAATAAA	0.0272
ACAGAGTG	0.0408
AATGATAT	0.0632

Sequence	PBM E-score
GTGCCTAA	-0.152
GACGGCTA	-0.0205
AGGGACAT	-0.0447
TAAGAATA	0.117
ATGCGTCG	0.0744
AACGGCGG	0.288
CAACAGGG	-0.22
AGCGACCG	0.193
ACCTCCGC	-0.25
CAGACCAA	-0.11
CAAGGTTA	0.0313
AATAATTG	-0.0972
CAAGCACA	-0.274
CTTGTTCA	-0.159
ATAACGAA	0.197
CCGTACGG	0.374
AAAGTATA	0.0969
ACAGTGGG	-0.0429
GCGGTACC	0.0215
GTCGTGAA	0.0602
TGCCAGCA	-0.235
TCACAGCA	-0.0683
